From ChEMBL document CHEMBL4888484, “Replenishing the malaria drug discovery pipeline: Screening and hit evaluation of the MMV Hit Generation Library 1 (HGL1) against asexual blood stage Plasmodium falciparum ,using a nano luciferase reporter read-out” (2022) come the findings set out here.

About 540 (0.36%) of roughly 150,000 compounds showed an effect of 50% or more. Some of the results follow.

This experiment has as its system Plasmodium falciparum. In words: Primary screen in NF54 nanoGlo assay, in single point, at 2uM, 72h; a lower Z score goes with more inhibition. It is filed as functional, Erythrocyte. Particulars: timepoint 72 hour.
A word on the % Inhibition: it is the relative decrease from the control value, in per cent. With `CN(C)c1ccc(CN2CC[C@H](c3nnc(-c4ccco4)o3)C2)cc1`, the “% Inhibition” value is reported as -12% and the Z score is reported as 1.96.

Consider `COc1cccc([C@H]2C[C@H](N(C)S(=O)(=O)CC(C)(C)OC)C2)c1`, for which the “% Inhibition” value was -7% and the Z score is 0.68.

For the compound `CCOc1ccc(NC(=O)C2[C@H]3C=C[C@@]4(O3)C(C(=O)NC3CCCCC3)N(CCc3ccccc3)C(=O)[C@@H]24)cc1` (stereo partly specified), the “% Inhibition” value came out at 16% and the Z score is reported as -2.43.

`Cc1nnsc1C(=O)Oc1ccc(C(C)C)cc1`: the “% Inhibition” value was -13% and the Z score amounted to 1.12.

For `Cc1cc(C)cc(NC(=O)CC(=O)N[C@@H]2C[C@H]3C(=O)N(C)CC(=O)N3C2)c1`, the “% Inhibition” value was -4% and the Z score came to 0.58.

Regarding `O=C1CCNC(=O)N1Cc1ccc(-n2cccn2)cc1`, the “% Inhibition” value was -9% and the Z score worked out at 1.41.

`Cc1ccc(OCC(=O)Nc2noc(-c3ccc(F)cc3)n2)cc1`: the “% Inhibition” value is given as -8% and the Z score was determined as 1.23.

As for `Cc1nc(CCNC(=O)C[C@H](C)c2ccc(F)cc2F)cs1`, the “% Inhibition” value was -4% and the Z score was 0.6.

`CCCCOCCN(CC#N)c1ccc(Br)cc1`: the “% Inhibition” value is -10% and the Z score was 1.24.

On to `CC(C)C[C@H](NC(=O)OC(C)(C)C)c1nnc(S(=O)(=O)Cc2ccc(Cl)cc2)o1`, for which the “% Inhibition” value is listed as -2% and the Z score is 0.2.

Regarding `O=C(Cc1ccc(Cl)cc1)OCc1nnc(-c2ccccc2)o1`, the “% Inhibition” value is reported as -2% and the Z score was 0.29.

With `c1cc2c3c(cccc3c1)NC1(CCCCC1)N2`, the “% Inhibition” value is given as -21% and the Z score is given as 2.44.

In the case of `CC[C@H]1CN(C2=Nc3c(cnn3C(C)(C)C)CN2)CCO1`, the “% Inhibition” value was -12% and the Z score was determined as 1.14.

With `CN1CC[C@@]2(CCC1=O)CN(S(=O)(=O)c1cccc(C#N)c1)CCN2C`, the “% Inhibition” value stood at 11% and the Z score is -1.36.

In the case of `CCC(C)(CC)c1noc(C[C@H]2CCC(=O)NC2)n1`, the “% Inhibition” value is -3% and the Z score is recorded as 0.5.

On to `COc1ccsc1C(=O)NC1CCCC1C(N)=O` (stereo unspecified), for which the “% Inhibition” value was 5% and the Z score was -0.48.

Regarding `CN1C(=O)c2ccc(S(=O)(=O)N[C@H]3CCC[C@@H]3O)cc2C1=O`, the “% Inhibition” value is recorded as 26% and the Z score is -2.98.

For `COc1cc2ccccc2cc1C(=O)Nc1cc(-c2nc3ccccc3o2)ccc1C`, the “% Inhibition” value is reported as -1% and the Z score is 0.14.

With `CCN1CCN(C(=O)c2cccc(Nc3c(Oc4ccc5c(c4)CCC5)cnn(-c4cccc(Cl)c4)c3=O)c2)CC1`, the “% Inhibition” value is reported as -14% and the Z score amounted to 1.74.

Take `Cc1nc(-c2cc(-c3cnn(C)c3C)on2)n([C@H]2CCS(=O)(=O)C2)n1`: the “% Inhibition” value was -12% and the Z score was found to be 1.83.

Regarding `CC1(NC(=O)CC2(CS(C)(=O)=O)CC2)CCN(C(=O)OC(C)(C)C)CC1`, the “% Inhibition” value is on record as -13% and the Z score is 1.52.

In the case of `Cc1nn(-c2nc3ccccc3s2)c2c1[C@@H](c1ccc(F)cc1F)CC(=O)N2`, the “% Inhibition” value is reported as -12% and the Z score was 1.64.

On to `COc1cccc(-n2c(C)cc(C(=O)N3CCC(NC(N)=O)CC3)c2C)c1`, for which the “% Inhibition” value is -3% and the Z score stood at 0.33.

Turning to `O=C(NCC1CCCCC1)c1cccs1`, the “% Inhibition” value worked out at 0% and the Z score is given as 0.02.

As for `C=C(C)[C@H](NC(N)=O)c1ccc(F)c(F)c1`, the “% Inhibition” value is reported as -7% and the Z score turned out to be 0.63.

As to `CC(C)CN1CCCn2nc(CNC(=O)c3cnn4ccn(C)c34)cc2C1`, the “% Inhibition” value is on record as -6% and the Z score was 0.68.

As to `COc1cccc(NS(C)(=O)=O)c1`, the “% Inhibition” value came to 8% and the Z score is recorded as -0.95.

In the case of `C[C@H]1CN(c2cccc(Cl)c2)C(=O)CN1Cc1nccn1C`, the “% Inhibition” value is on record as -7% and the Z score is listed as 0.89.

With `O=C(NCCOc1ccccc1)N1CCN(c2nccs2)CC1`, the “% Inhibition” value came to 5% and the Z score is listed as -0.95.

For the compound `C[C@@H](c1ccon1)N(C)C(=O)c1ccc(Cl)cc1OCCCN`, the “% Inhibition” value was -10% and the Z score came out at 1.52.

As for `CO[C@H]1C[C@@H](CNC(=O)N[C@H](C)c2ccc(F)cc2)C1`, the “% Inhibition” value was -16% and the Z score is reported as 1.7.

With `CCN1C[C@H](CN(C)CC(=O)Nc2cc(OC)cc(OC)c2)Oc2ccccc21`, the “% Inhibition” value is reported as -4% and the Z score is on record as 0.49.

For the compound `CN1C(=O)C[C@H](C(=O)NCC(C)(C)c2cccc(Cl)c2)[C@H]1c1nccn1C`, the “% Inhibition” value is given as 1% and the Z score is recorded as -0.24.

As for `Cc1ccc(CN(C)C)cc1NC(=O)c1ccc2nncn2c1`, the “% Inhibition” value is -5% and the Z score came out at 0.68.

Turning to `O=C(c1ccc(Cl)cc1OC1CCN(Cc2ccc(CO)o2)CC1)N1CCCCC1`, the “% Inhibition” value was determined as 17% and the Z score is reported as -2.29.

Regarding `CS(=O)(=O)N1CCN(c2ccc3cc[nH]c3n2)CC1`, the “% Inhibition” value was -1% and the Z score is reported as 0.18.

Consider `CC(=O)N1C[C@@H]2OCC(=O)N(Cc3ccccc3)[C@@H]2C1`, for which the “% Inhibition” value amounted to 3% and the Z score is reported as -0.4.

As for `CCOc1ccc2c(C)c(C(=O)N3CC[C@](C)(O)[C@H](C)C3)oc2c1OCC`, the “% Inhibition” value is recorded as -2% and the Z score is recorded as 0.22.

Regarding `CCn1cnnc1CNS(=O)(=O)[C@H]1C[C@@H]1c1ccccc1`, the “% Inhibition” value is listed as -4% and the Z score stood at 0.53.

With `CC(=O)C(C(C)=O)C(NC(=O)c1cccnc1)(C(F)(F)F)C(F)(F)F`, the “% Inhibition” value is -9% and the Z score is 1.39.

For the compound `O=S(=O)(CCc1ccccc1)N1CC[C@H](O)C1`, the “% Inhibition” value is on record as 4% and the Z score is -0.66.

For the compound `CCCS(=O)(=O)N(C)c1ccc(C)c(N(C)C)c1`, the “% Inhibition” value turned out to be 4% and the Z score is -0.52.

Consider `O=C1CN(C/C=C/c2ccccc2)CCN1c1ccc2cn[nH]c2c1`, for which the “% Inhibition” value was 2% and the Z score is recorded as -0.21.
